Measurements as given in PubChem BioAssay AID1508623 (National Center for Advancing Translational Sciences (NCATS), 2021).
The campaign covered roughly 48,000 compounds. About 450 (0.94%) were called active. Not shown: some 19% with an inconclusive outcome. Calls come from the whole dose curve; as a rule, active = well fitted inhibition curve with a large enough effect; inconclusive = small, poorly fitted or top-dose-only effect; inactive = no such curve, though single readings can be large or run the other way. The list shows a part of the results.

Experiment: Primary qHTS for Identification of Small Molecule Inhibitors of Huntingtin Promoter Activity; note: nearly all actives have a fitted effect of over 50% in size
Conditions: HEK293 HTT promoter firefly luciferase reporter (activity 0% = vehicle and -100% = no light), 24 h; series mostly up to 57.5 µM; activity change, negative = inhibition: at the top concentration
Text: Assay Provider: Russell L. Margolis M.D.
Department Neurology, Johns Hopkins University School of Medicine, Baltimore, MD
Huntington's Disease (HD) is a neurodegenerative disorder caused by a CAG repeat expansion in exon 1 of huntingtin (HTT). While there are currently no disease-modifying treatments for HD, recent efforts have focused on development of nucleotide-based therapeutics to lower HTT expression. As an alternative to siRNA or oligonucleotide methods, we hypothesized that suppression of HTT expression might be accomplished by small molecules that either (1) directly decrease HTT expression by suppressing HTT promoter activity or (2) indirectly decrease HTT expression by increasing the promoter activity of HTT-AS, the gene antisense to HTT that appears to inhibit expression of HTT.
We developed and employed a high throughput screen for modifiers of HTT and HTT-AS promoter activity using luminescent reporter HEK293 cells; of the 52,041 compounds tested, we identified 898 replicable hits. We used a rigorous stepwise approach to assess compound toxicity and the capacity of the compounds to specifically lower huntingtin protein in 5 different cell lines, including HEK293 cells, HD lymphoblastoid cells, mouse primary neurons, HD iPSCs differentiated into cortical-like neurons, and HD hESCs. We found no compounds which were able to lower huntingtin without lowering cell viability in all assays, though the potential efficacy of a few compounds at non-toxic doses could not be excluded.
SEQUENCE No. (1, 2, 3, etc.); […] (e.g., Cells, Incubation, Reagent, etc.); VALUE and DESCRIPTION.
1; Reagent; 4 uL; 2,500 Hek293 luciferase reporter cells per wells
3; Compound; 23 nL; Control inhibitor / compound library
5; Reagent; 2.5 uL; Firefly Luc reagent; Dual-Glo Luciferase Reporter Assay System (Promega)
6; Time; 10 min; room temperature incubation
7; Detection; Luminescence; FLuc
NOTES (numbers refer to sequence above)
1; High-throughput screening, measuring luminescence from a Hek293 luciferase reporter, was performed in 1,536 well white-walled tissue-culture treated plates. 2,500 cells were plated in 4 µL of Opti-MEM per well using a Multidrop Combi Reagent Dispenser (ThermoFisher).
2; Assay plates were cultured for 24 hours.
3; Control inhibitor (PTC124; final concentration of 50 uM) and compound library (at final concentrations of 460 nM - 57.5 uM) were added to the assay plate using the Kalypsis Pintool Robotic System equipped with 1536 pinheads.
4; Cells were then incubated for 24 hours at 37 degrees C prior to luminescence measurements.
5; In all cases, luminescence was measured using the Dual-Glo Luciferase Reporter Assay System (Promega) following the manufacturer's instructions.
6; Room temperature incubation.
7; Luminescence signal was obtained using the PerkinElmer ViewLux plate reader. Results were normalized to vehicle control (0% activity) and zero RLU (-100% activity).

Activity change, negative = inhibition, inactive:
Cc1cccc(Cc2c(C)nc3nc(SCC(=O)NC4CCCCC4)nn3c2C)c1 -13.1%
CCOC(=O)c1nnc2c(-c3ccc(F)cc3)c(C)nn2c1N -4.02%
COc1ccccc1CNC(=O)c1cnn(-c2ccc(F)cc2F)c1C1CCN(C(=O)OC(C)(C)C)CC1 -12.3%
Cc1ccc(N2CC(NC(=O)Cc3ccc(F)cc3)CC2=O)cc1C (stereo unspecified) -24.3%
COCCN1CN=C(NS(=O)(=O)c2ccc(C)cc2)NC1 -25.3%
COc1ccc(-c2noc(CCC(=O)Nc3ccccc3Cl)n2)cc1OC -21.4%
CC1CCN(S(=O)(=O)c2ccc3nc(N4CCN(c5ccccc5F)CC4)ccc3c2)CC1 -4.16%
COc1ccc(/C=C(\C#N)c2nc(-c3cc4ccccc4oc3=O)cs2)cc1OC -5.17%
CCOc1cc(C2CC(=O)Nc3c2c(C)nn3-c2nc(C)cc(C)n2)ccc1O (stereo unspecified) -9.46%
COC(=O)c1cccnc1-n1c(=O)c2cccnc2n(CC(=O)Nc2cccc(C(F)(F)F)c2)c1=O -18.5%
COc1cc(C)ccc1OCCSc1nnc(-c2cccs2)o1 -23% [at 11.5 µM]
FC(F)(F)c1cccc(N2CCN(Cc3nnc(-c4ccccc4)o3)CC2)c1 -16.5%
O=C(/C=C/c1ccccc1)Nc1cc(-c2nc3ccccc3o2)ccc1Cl -9.01%
CCOc1ccccc1CNC(=O)c1ccc(Cn2c(=O)c3cccn3c3cccnc32)cc1 -5.33%
CCCN(CCC)CCCNC(=O)c1nn(C)c2c1CS(=O)(=O)c1ccccc1-2 -14.6%
COC(=O)CC1Oc2ccccc2-n2cc(-c3ccc(Cl)cc3)nc21 (stereo unspecified) -13.1%
Cc1ccccc1C(=O)Nc1nnc(S(=O)(=O)N2CCCCCC2)s1 -6.14%
Cc1ccc(Cl)cc1N1CCN(C(=O)C2CCN(Cc3nc(-c4cccc(Cl)c4)oc3C)CC2)CC1 -9.68%
COc1ccc(CNC(=O)Cc2csc3nc(-c4ccc(C)cc4)cn23)cc1 19.4%
O=C(NO)c1cnc(N2CCN(S(=O)(=O)c3ccc4ccccc4c3)CC2)nc1 112%
CCc1nn2c(=O)cc(COC(=O)C(c3ccccc3)c3ccccc3)nc2s1 -27.3%
CCOC(=O)c1ccc(Nc2cc(-c3ccccc3)nc(C)n2)cc1 -15%
COc1ccc(-n2nc(C(=O)NCCc3cccc(C)c3)c3c4ccccc4n(C)c3c2=O)cc1Cl -10.6%
Cc1cc(C)cc(N(CC(=O)NCc2ccccc2Cl)S(=O)(=O)c2c(C)noc2C)c1 -17.5%
CCOC(=O)Cn1c(=O)n(-c2ccccc2OC)c2nc(-c3ccccc3C)nc(C(N)=O)c21 -21%
O=C(COc1ccccc1)Nc1ccccc1C(=O)OCc1cc(=O)n2nc(C3CC3)sc2n1 -13.3%
